# Experimental data: the supplement of paper PMC12217912
# This is one part of the list. The full chains were built here from the parent and the listed change. Values near 0.05 are background.
# B1: TEV protease; numbered along this chain (parent)
# chain: MGESLFKGPRDYNPISSSICHLTNESDGHTTSLYGIGFGPFIITNKHLFRRNNGTLVVQSLHGVFKVKDTTTLQQHLVDGRDMIIIRMPKDFPPFPQKLKFREPQREERICLVTTNFQTKSMSSMVSDTSCTFPSGDGIFWKHWIQTKDGQCGSPLVSTRDGFIVGIHSASNFTNTNNYFTSVPKNFMELLTNQEAQQWVSGWRLNADSVLWGGHKVFMVKPEEPFQPVKEATQL
# Variants of: B1
# Assay: raw area under fraction-flipped curve 0-4 h after induction (AUC4h, not background-subtracted), DNA-recorder readout of cleavage of the substrate (dimensionless); higher = more cleavage of the substrate by the protease variant
# Conditions: temperature: 34 °C; time window: 0-4 h after rhamnose induction
# Experimental: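 In vivo DNA recorder in E. coli TOP10(DE3) ΔrhaA at 34 °C. Each TEVp single-site mutant (parent TEVp 0) is paired with a single-site variant of the 7-mer TEVs (canonical ENLYFQ|S). The substrate sits between flexible linkers in a Bxb1-sfGFP-TEVs-SsrA fusion, so cleavage stabilises Bxb1 and speeds flipping of a recombination array, read by NGS. The value is the raw area under the fraction-flipped curve over 0-4 h after rhamnose induction (AUC4h), with ≥20 reads per time point. It is not background-subtracted; inactive controls average about 0.047.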
# 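Also: Bxb1 expression induced with 0.2% (w/v) L-rhamnose at OD600 near 0.5, cultures sampled hourly, flipped fraction per protease–substrate barcode pair counted by paired-end Illumina sequencing.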
Variant,area with substrate ENLDFQS,area with substrate ENLEFQS,area with substrate ENLHFQS,area with substrate ENLLFQS,area with substrate ENLRFQS,area with substrate ENLSFQS,area with substrate ENLFFQS,area with substrate ENLNFQS,area with substrate ENLVFQS,area with substrate ENLIFQS,area with substrate ENLKFQS,area with substrate ENLMFQS,area with substrate ENLPFQS,area with substrate ENLQFQS,area with substrate ENLWFQS,area with substrate ENLGFQS,area with substrate ENLTFQS
MGESLFKGPRDYNPISSSICHLTNESDGHTTSLYGIGFGPFIITNKHLFRRNNGTLVVQSLHGVFKVKDTTTLQQHLVDGRDMIIIRMPKDFPPFPQKLKFREPQREERICLVTTNFQTKSMSSMVSDTSCTFPSGPGIFWKHWIQTKDGQCGSPLVSTRDGFIVGIHSASNFTNTNNYFTSVPKNFMELLTNQEAQQWVSGWRLNADSVLWGGHKVFMVKPEEPFQPVKEATQL [D137P],0.0547,0.0631,0.0617,0.114,0.079,0.0474,–,–,–,–,–,–,–,–,–,–,–
MGESLFKGPRDYNPISSSICHLTNESDGHTTSLYGIGFGPFIITNKHLFRRNNGTLVVQSLHGVFKVKDTTTLQQHLVDGRDMIIIRMPKDFPPFPQKLKFREPQREERICLVTTNFQTKSMSSMVSDTSCTFPSKDGIFWKHWIQTKDGQCGSPLVSTRDGFIVGIHSASNFTNTNNYFTSVPKNFMELLTNQEAQQWVSGWRLNADSVLWGGHKVFMVKPEEPFQPVKEATQL [G136K],0.0568,–,0.0717,–,–,0.0286,0.0733,0.0648,0.0761,–,–,–,–,–,–,–,–
MGESLFKGPRDYNPISSSICHLTNESDGHTTSLYGIGFGPFIITNKHLFRRNNGTLVVQSLHGVFKVKDTTTLQQHLVDGRDMIIIRMPKDFPPFPQKLKFREPQREERICLVTTNFQTKSMSSMVSDTSCTFPSVDGIFWKHWIQTKDGQCGSPLVSTRDGFIVGIHSASNFTNTNNYFTSVPKNFMELLTNQEAQQWVSGWRLNADSVLWGGHKVFMVKPEEPFQPVKEATQL [G136V],0.0713,0.0575,0.0644,0.0659,–,0.0485,0.0771,0.0513,–,0.0728,0.0784,0.0597,0.0913,0.0574,0.0666,–,–
MGESLFKGPRDYNPISSSICHLTNESDGHTTSLYGIGFGPFIITNKHLFRRNNGTLVVQSLHGVFKVKDTTTLQQHLVDGRDMIIIRMPKDFPPFPQKLKFREPQREERICLVTTNFQTKSMSSMVSDTSCTFPSGDGIFWKHWIQTKDGQCGSPLVSTQDGFIVGIHSASNFTNTNNYFTSVPKNFMELLTNQEAQQWVSGWRLNADSVLWGGHKVFMVKPEEPFQPVKEATQL [R160Q],0.0623,–,0.069,0.0899,0.0847,0.0655,0.0791,0.0629,0.0894,0.0923,0.0594,0.0728,–,–,0.052,–,–
MGESLFKGPRDYNPISSSICHLTNESDGHTTSLYGIGFGPFIITNKHLFRRNNGTLVVQSLHGVFKVKDTTTLQQHLVDGRDMIIIRMPKDFPPFPQKLKFREPQREERICLVTTNFQTKSMSSMVSDTSCTFPSGDGIFWKHWIQTKDGQCGSPLVSTTDGFIVGIHSASNFTNTNNYFTSVPKNFMELLTNQEAQQWVSGWRLNADSVLWGGHKVFMVKPEEPFQPVKEATQL [R160T],0.055,0.0846,0.0817,0.0886,0.085,0.0757,–,0.0657,0.123,–,0.0848,–,0.0573,–,0.0676,0.0409,–
MGESLFKGPRDYNPISSSICHLTNESDGHTTSLYGIGFGPFIITNKHLFRRNNGTLVVQSLHGVFKVKDTTTLQQHLVDGRDMIIIRMPKDFPPFPQKLKFREPQREERICLVTTNFQTKSMSSMVSDTSCTFPSGDGIFWKHWIQTKDGQCGSPLVSTFDGFIVGIHSASNFTNTNNYFTSVPKNFMELLTNQEAQQWVSGWRLNADSVLWGGHKVFMVKPEEPFQPVKEATQL [R160F],0.0637,0.0897,0.062,0.0849,0.0845,0.0732,0.0948,0.0752,0.12,0.0726,0.0905,0.0823,0.072,0.0466,0.0543,0.0716,–
MGESLFKGPRDYNPISSSICHLTNESDGHTTSLYGIGFGPFIITNKHLFRRNNGTLVVQSLHGVFKVKDTTTLQQHLVDGRDMIIIRMPKDFPPFPQKLKFREPQREERICLVTTNFQTKSMSSMVSDTSCTFPSGDGIFWKHWEQTKDGQCGSPLVSTRDGFIVGIHSASNFTNTNNYFTSVPKNFMELLTNQEAQQWVSGWRLNADSVLWGGHKVFMVKPEEPFQPVKEATQL [I145E],0.0549,0.0676,–,0.0613,0.0606,–,–,0.058,–,–,–,–,–,–,–,–,–
MGESLFKGPRDYNPISSSICHLTNESDGHTTSLYGIGFGPFIITNKHLFRRNNGTLVVQSLHGVFKVKDTTTLQQHLVDGRDMIIIRMPKDFPPFPQKLKFREPQREERICLVTTNFQTKSMSSMVSDTSCTFPSGDGIFWKHWIQTKDGQCGSPLGSTRDGFIVGIHSASNFTNTNNYFTSVPKNFMELLTNQEAQQWVSGWRLNADSVLWGGHKVFMVKPEEPFQPVKEATQL [V157G],0.0564,0.0444,–,0.0493,0.0515,0.0623,0.0599,0.0487,0.0577,0.0514,0.0584,–,0.0456,–,–,–,–
MGESLFKGPRDYNPISSSICHLTNESDGHTTSLYGIGFGPFIITNKHLFRRNNGTLVVQSLHGVFKVKDTTTLQQHLVDGRDMIIIRMPKDFPPFPQKLKFREPQREERICLVTTNFQTKSMSSMVSDTSCTFPSGDGIFWKHWIQTKDGQCGSPLVSTRDGFIVGIHSASNFTNPNNYFTSVPKNFMELLTNQEAQQWVSGWRLNADSVLWGGHKVFMVKPEEPFQPVKEATQL [T176P],0.0653,0.0392,0.0645,–,0.0617,–,0.0729,0.0512,0.0662,0.0436,0.0652,–,0.0639,0.0624,0.0635,–,0.0532
